From PubChem BioAssay AID1347073 (National Center for Advancing Translational Sciences (NCATS), 2019)
In all, about 45,000 compounds went through this assay and about 200 (0.44%) were called active. Not shown: some 7% with an inconclusive outcome. Calls come from the whole dose curve; as a rule, active = well fitted activation curve with a large enough effect; inconclusive = small, poorly fitted or top-dose-only effect; inactive = no such curve, though single readings can be large or run the other way. The list shows a part of the results.

Assay: qHTS of TDP-43 Inhibitors: NCGC Sytravon Library Screen; note: 0% is about no effect; nearly all actives have a fitted effect of over 55% in size
Settings: yeast TDP-43 toxicity rescue, BacTiter-Glo growth, 24 h; series mostly up to 46.1 µM; growth rescue (activation): at the top concentration
How it was run: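 TDP-43-expressing yeast, pregrown in raffinose, seeded at OD600 0.02 in galactose medium with compound for 24 hr at 30 deg C. Growth read by BacTiter-Glo luminescence, so rescue of toxicity appears as activation.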

Row | SMILES | growth rescue (activation)
1 | Cc1nnc(NC(=O)CSc2nc3c(c(=O)n(C)c(=O)n3C)n2C(C)C)s1 | inactive: 4.7%
2 | Cc1ccc(-c2nc3ccccc3o2)cc1NC(=S)NC(=O)c1cc2ccccc2o1 | inactive: -6.14%
3 | COc1cc(C(=O)Nc2cc(OC)c(OC)c(OC)c2)ccc1OCc1c(C)noc1C | inactive: 19%
4 | Cc1ccc(N(C(=O)CNC(=O)c2ccco2)C(C(=O)NC2CCCC2)c2ccncc2)c(C)c1 (stereo not drawn) | inactive: -17.6%
5 | Cc1ccc(C)c(-n2cc(CN3CCNC(=O)CC3)c(-c3ccccc3)n2)c1 | inactive: -5.21%
6 | c1ccc(Cc2nnc3n2CCCCC3)cc1 | inactive: 16.3%
7 | CC(=O)c1ccc(NC(=O)CCC(=O)OCC(=O)c2cccc([N+](=O)[O-])c2)cc1 | inactive: 9.89%
8 | O=C(O)c1ccc(/C=N/N2CCN(Cc3cccc4ccccc34)CC2)cc1 | inactive: -7.18%
9 | CCOc1ccc(Br)cc1S(=O)(=O)NC1=NCCCCC1 | inactive: 4.69%
10 | C=CCN(CC=C)CCOc1ccc2ccccc2c1 | inactive: 4.14%
11 | C(=N\N1CCN(c2ccccn2)CC1)/c1ccco1 | inactive: -1.27%
12 | O=C(COC(=O)/C=C/c1nc2ccccc2s1)Nc1cccc(Cl)c1Cl | inactive: 7.12%
13 | Cc1ccc2cc3cc(C(=O)NCc4ccc5c(c4)OCO5)oc3nc2c1 | inactive: 11.8%
14 | O=C(COc1ccc(S(=O)(=O)N2CCOCC2)cc1)Nc1ccccc1Cl | inactive: 15.2%
15 | c1ccc(SCc2nc(-c3ccncc3)n[nH]2)nc1 | inactive: -18.5%
16 | CN(C)CCNC(=O)c1cccc(-c2cnc3c(NC=O)cc(-c4ccccc4F)cn23)c1 | inactive: -1.17%
17 | CN(C)CCCNc1nc2cc(-c3cnn(C)c3)sc2c(=O)n1C | inactive: 12%
18 | Cc1ccccc1C(=O)N1CCC(C(=O)NCCc2ccc(S(N)(=O)=O)cc2)CC1 | inactive: 0.675%
19 | Cc1cc(OC(C)C(=O)NCCCN2CCOCC2)ccc1Cl (stereo not drawn) | inactive: -2.36%
20 | CCN(CC)S(=O)(=O)c1cccc(C(=O)N/N=C/c2ccc(O)c(O)c2O)c1 | inactive: -4.61%
21 | COc1ccc(C(=O)NNC(=S)NC(=O)C(C)(C)C)cc1 | inactive: -8.15%
22 | COc1cc2c(cc1OC)CN(C(=S)Nc1c(C)cccc1C)CC2 | inactive: 4.32%
23 | Cc1ccc(C(=O)COC(=O)c2ccccc2NC(=O)c2ccccc2)cc1[N+](=O)[O-] | inactive: 23.5%

Row | SMILES | growth rescue (activation)
24 | Cc1cccc(/C=N/NC(=O)c2cc(Br)ccc2OCc2ccccc2)n1 | inactive: 19.8%
25 | CCN(C(=O)COC(=O)CNC(=O)c1ccc(C)s1)c1ccccc1 | inactive: -1.92%
26 | Cc1ccccc1CC(=O)Nc1ccc2c(c1)c(=O)n(C)n2-c1ccccc1F | inactive: 7.99%
27 | CCCSc1ncc(Cl)c(C(=O)Nc2nc3ccc(OCC)cc3s2)n1 | inactive: 14.3%
28 | CNC(=O)C1Cc2c(-c3cccc(F)c3)ccnc2O1 (stereo not drawn) | inactive: 4.69%
29 | CC(=O)c1ccc(N2CCN(Cc3cc(=O)n4c(-c5ccccc5)csc4n3)CC2)cc1 | inactive: 20.7%
30 | S=c1[nH]nc(C2CCCCC2)n1Cc1ccccc1 | inactive: 21%
31 | CCCOC1CCCN(C(=O)CCc2nnc(Cc3cccc(C)c3)o2)C1 (stereo not drawn) | inactive: 6.88%
32 | Cn1c(N)c(C(=O)COc2ccc(Cl)cc2Cl)c(=O)n(C)c1=O | inactive: 11.6%
33 | O=C(CCSc1nc(-c2ccco2)cc(C(F)(F)F)n1)N1CCN(c2ccccn2)CC1 | inactive: 4.82%
34 | CCC(C)(C)NC(=O)C(c1cccn1C)N(C(=O)Cn1nnc2ccccc21)c1ccc(F)cc1 (stereo not drawn) | inactive: 23%
35 | O=C(NCCc1ccccc1)C(=O)N/N=C/c1ccc2c(c1)OCO2 | inactive: -27.3%
36 | COc1ccc2o/c(=N/NC(=O)c3cccs3)c(C(N)=O)cc2c1 | inactive: 1.12%
37 | Cc1ccc(C(=O)NCCNC(=O)c2ccco2)cc1C | inactive: 0.317%
38 | Cc1ccc(CNc2nc(NC(C)C)nc3ccsc23)c(C)c1 | inactive: 13.4%
39 | CNC(=S)N/N=C/c1ccc(OCC(=O)Nc2c(C)cc(C)cc2C)c(OC)c1 | inactive: -0.439%
40 | CC(C)CC(=O)NC(=S)Nc1ccccc1C(F)(F)F | inactive: -2.56%
41 | CC(C)OCCCNC(=O)CN1C(=O)/C(=C/c2ccccc2F)Oc2ccccc21 | inactive: -0.824%
42 | O=C(CSc1nnc(-c2ccncc2)s1)Nc1ccc(Cl)c(C(=O)O)c1 | inactive: 13.8%
43 | COc1ccccc1N1CCN(C(=O)CSc2nc3ccccc3nc2N2CCC(C)CC2)CC1 | inactive: -11.2%
44 | Cc1nc2ccccc2n1CCOc1ccc([N+](=O)[O-])cc1 | inactive: 3.71%
45 | CN(NC(=O)/C=C/C(=O)O)c1ncc(C(F)(F)F)cc1Cl | inactive: -5.44%
46 | Cc1ccc(CN(C)c2nc(-c3cccnc3)nc3ccccc23)o1 | inactive: -14.8%

Row | SMILES | growth rescue (activation)
47 | CN(C(=O)COc1ncnc2ccccc12)C1CCCCC1 | inactive: -2.82%
48 | COc1ccc(CNCc2cccc(OC)c2OC)cc1Br | inactive: -6.33%
49 | CCc1nc2c(OCc3ccc(C#N)cc3)cccn2c1N(C)C(=O)c1ccc(C)cc1 | inactive: 26.7%
50 | CCOC(=O)N/N=C\c1ccc(-c2cc(Cl)ccc2Cl)o1 | inactive: 3.82%
51 | CCC(C)N(C(=O)c1csnn1)C(C(=O)NCc1ccc(F)cc1)c1ccccc1F (stereo not drawn) | inactive: 4.1%
52 | Cc1cc2cc3c(cc2nc1SCc1ccc(C(=O)O)cc1)OCCO3 | inactive: -13.5%
53 | O=C(NC1CC2CCCC(C1)N2C(=O)Nc1ccccc1Cl)C1CC1 (stereo not drawn) | inactive: 1.17%
54 | O=C(Nc1nnc([C@@H]2C[C@H](O)[C@@H](CO)O2)s1)c1cccc(Oc2ccccc2)c1 | inactive: 7.16%
55 | Cc1nc2ccccc2c(=O)n1/N=C/c1cn[nH]c1-c1ccccc1 | inactive: -5.9%
56 | CS(=O)(=O)Cc1ccc(C(=O)Nc2cccc(-c3nc4ccccc4[nH]3)c2)cc1 | inactive: 7.7%
57 | COCCn1c(=N)c(C(=O)NCCc2ccc(OC)cc2)cc2c(=O)n3cccc(C)c3nc21 | inactive: -11.5%
58 | Cc1ccc2[nH]cc(CCNC(=O)c3ccco3)c2c1 | inactive: 4.58%
59 | COc1ccc(CCNC2=C(Cl)C(=O)N(Cc3ccccc3)C2=O)cc1OC | inactive: 6.85%
60 | O=C(Nc1ccccc1C(=O)N1CCCCCC1)c1ccccc1 | inactive: 13%
61 | CCOC(=O)C1=C(C)NC(=S)NC1c1ccco1 (stereo not drawn) | inactive: -16.1%
62 | COc1cc(/C=C/C(=O)O)ccc1S(=O)(=O)N1CCCc2ccccc21 | inactive: -6.02%
63 | O=C(CSc1nc(C2CC2)nc2ccccc12)N1CCCCC1 | inactive: -1.74%
64 | COc1ccccc1NC(=S)N(Cc1ccc(C(=O)O)cc1)Cc1ccc(OC)c(OC)c1 | inactive: 2.58%
65 | S=C(NCC(c1ccco1)N1CCCC1)Nc1ccccc1 (stereo not drawn) | inactive: 12.7%
66 | C/C(=N\NC(=O)c1cc(Br)ccc1O)c1cccs1 | inactive: -10.4%
67 | COC(=O)c1cccc(N(C(=O)CNC(=O)c2cccs2)C(C(=O)NCC2CCCO2)c2ccc(OC)c(OC)c2)c1 (stereo not drawn) | inactive: 3.36%
68 | CC1CC(NC(=O)N(C)C)N(C)C(=O)N1 (stereo not drawn) | inactive: 1.77%
